Data on 18 molecules can be found in the supplement of paper PMC10369915.

To fix the notation:
B1: PLA2G2D_Y82_S80G_YF (peptide)
chain: QGCGIYKDFFR
B2: PIK3AP1_Y553 (peptide)
chain: PDNEPYIFKVF
B3: PIK3CA_Y361_V356I (peptide)
chain: IRTGIYHGGEP
B4: PLA2G2D_Y85_S80G_YF (peptide)
chain: GIFKDYFRFNF
B5: PIK3R1_Y463_D464H (peptide)
chain: EKSREYHRLYE
B6: PIP4K2A_Y246_N251S (peptide)
chain: EGQKIYIDDNS
B7: PKLR_Y38_G37E (peptide)
chain: GGPAEYLRRAS
B8: PKMYT1_Y136_R140C (peptide)
chain: EDGRLYAVKCS
B9: PIK3R1_Y467_YF (peptide)
chain: EFDRLYEEFTR
B10: PKLR_Y38 (peptide)
chain: GGPAGYLRRAS
B11: PKP2_Y616_S615F (peptide)
chain: LHNLFYQLEAE
B12: PHIP_Y16 (peptide)
chain: LRSELYFLIAR
B13: PKP2_Y166_S169G (peptide)
chain: YTHSDYQYGQR
B14: PIP4K2A_Y246 (peptide)
chain: EGQKIYIDDNN
B15: PKP2_Y659_K654Q (peptide)
chain: QVKEQYQDVPM
B16: PITPNA_Y140_V136M (peptide)
chain: HMEAVYIDIAD
B17: PKLR_Y38_R40W (peptide)
chain: GGPAGYLWRAS
B18: PHEX_Y250_M253I (peptide)
chain: YRDALYKFIVD

The list shows a part of the results. No stated cut-off is given here; in the data, active = 3.2 or more and inactive = the rest. Only a few entries rise above the background.
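Further: displayed peptides selected on beads carrying the immobilized SH2 domain, with library peptides lacking any tyrosine serving as negative controls.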

In the first test the target is SHP2 C-SH2 domain E139D. The experiment in a line: enrichment score (SH2-bound / input frequency) (ratio); bacterial display of known human phosphotyrosine sites (pTyr-Var adds point mutants) read by sequencing; higher = stronger binding; tyrosines were phosphorylated by kinases first. Conditions: peptide library: pTyr-Var.
As for B1, the enrichment score was inactive: 2.47.

On to B2, for which the enrichment score was inactive: 0.605.

For the molecule B3, the enrichment score was inactive: 0.792.

Turning to B4, the enrichment score was inactive: 2.1.

Consider B5, for which the enrichment score is inactive: 0.614.

Turning to B6, the enrichment score is inactive: 0.553.

On to B7, for which the enrichment score is inactive: 0.68.

On to B8, for which the enrichment score was inactive: 0.743.

As for B9, the enrichment score is inactive: 0.971.

Take B10: the enrichment score was inactive: 0.322.

In the case of B11, the enrichment score is inactive: 1.63.

With B12, the enrichment score is inactive: 3.14.

As for B13, the enrichment score was inactive: 0.813.

For B14, the enrichment score was inactive: 0.75.

Turning to B15, the enrichment score was inactive: 0.65.

For B16, the enrichment score is inactive: 1.6.

With B17, the enrichment score was inactive: 0.969.

Regarding B18, the enrichment score is inactive: 1.71.

The target of another test is SHP2 C-SH2 domain wild-type. Described as above. Conditions: peptide library: pTyr-Var.
For B1, the enrichment score was inactive: 1.73.

For B2, the enrichment score is inactive: 0.605.

Regarding B3, the enrichment score was inactive: 0.7.

With B4, the enrichment score is inactive: 2.35.

For the molecule B5, the enrichment score was inactive: 0.497.

As to B6, the enrichment score is inactive: 0.534.

As to B7, the enrichment score is inactive: 0.737.

As to B8, the enrichment score is inactive: 0.818.

As for B9, the enrichment score is inactive: 0.873.

With B10, the enrichment score is inactive: 0.198.

For the molecule B11, the enrichment score was inactive: 1.5.

Take B12: the enrichment score was active: 3.77.

Regarding B13, the enrichment score was inactive: 0.53.

B14: the enrichment score is inactive: 0.764.

Turning to B15, the enrichment score was inactive: 0.542.

Take B16: the enrichment score was inactive: 1.32.

With B17, the enrichment score was inactive: 0.726.

Take B18: the enrichment score was inactive: 1.67.

The next test addresses SHP2 N-SH2 domain L43F. Described as above. Conditions: peptide library: pTyr-Var.
With B1, the enrichment score is inactive: 1.51.

Consider B2, for which the enrichment score is inactive: 0.758.

With B3, the enrichment score was inactive: 0.784.

For B4, the enrichment score is inactive: 2.38.

B5: the enrichment score is inactive: 0.54.

In the case of B6, the enrichment score is inactive: 0.639.

In the case of B7, the enrichment score was inactive: 0.7.

For B8, the enrichment score is inactive: 0.614.

Turning to B9, the enrichment score is inactive: 0.856.

Turning to B10, the enrichment score is inactive: 0.261.

As for B11, the enrichment score is inactive: 1.42.

On to B12, for which the enrichment score is active: 3.37.

As to B13, the enrichment score was inactive: 0.431.

As for B14, the enrichment score is inactive: 0.582.

For B15, the enrichment score is inactive: 0.702.

As for B16, the enrichment score was inactive: 0.871.

For the molecule B17, the enrichment score was inactive: 0.957.

Turning to B18, the enrichment score was inactive: 1.8.

The target in another test is SHP2 N-SH2 domain T42A. The test is described as above. Conditions: peptide library: pTyr-Var.
Take B1: the enrichment score was inactive: 1.95.

Regarding B2, the enrichment score is inactive: 0.522.

Turning to B3, the enrichment score was inactive: 0.835.

For B4, the enrichment score was inactive: 2.19.

For the molecule B5, the enrichment score is inactive: 0.494.

Regarding B6, the enrichment score was inactive: 0.753.

For the molecule B7, the enrichment score was inactive: 0.624.

Take B8: the enrichment score was inactive: 0.615.

As to B9, the enrichment score is inactive: 0.776.

Consider B10, for which the enrichment score was inactive: 0.442.

Turning to B11, the enrichment score was inactive: 1.58.

B12: the enrichment score was inactive: 2.63.

On to B13, for which the enrichment score is inactive: 0.411.

In the case of B14, the enrichment score was inactive: 0.552.

On to B15, for which the enrichment score is inactive: 0.705.

As to B16, the enrichment score is inactive: 1.44.

As to B17, the enrichment score is inactive: 0.792.

As for B18, the enrichment score was inactive: 1.64.

The next test concerns the target SHP2 N-SH2 domain T52S. The description is as above. The conditions noted are these: peptide library: pTyr-Var.
In the case of B1, the enrichment score is inactive: 1.07.

B2: the enrichment score is inactive: 0.635.

Turning to B3, the enrichment score was inactive: 0.819.

B4: the enrichment score was inactive: 2.26.

On to B5, for which the enrichment score is inactive: 0.564.

As to B6, the enrichment score was inactive: 0.565.

For B7, the enrichment score was inactive: 0.572.

For the molecule B8, the enrichment score was inactive: 0.668.

For B9, the enrichment score is inactive: 0.854.

On to B10, for which the enrichment score is inactive: 0.286.

With B11, the enrichment score was inactive: 1.45.

In the case of B12, the enrichment score was inactive: 3.06.

For the molecule B13, the enrichment score was inactive: 0.527.

For the molecule B14, the enrichment score is inactive: 0.691.

With B15, the enrichment score was inactive: 0.746.

Consider B16, for which the enrichment score was inactive: 0.961.

Regarding B17, the enrichment score is inactive: 0.891.

With B18, the enrichment score was inactive: 1.54.

For a further test, the target named is SHP2 N-SH2 domain wild-type. The test is described as above. Conditions: peptide library: pTyr-Var.
For B1, the enrichment score was inactive: 2.16.

Consider B2, for which the enrichment score is inactive: 0.624.

In the case of B3, the enrichment score is inactive: 0.91.

On to B4, for which the enrichment score is inactive: 2.63.

For B5, the enrichment score is inactive: 0.636.

Consider B6, for which the enrichment score is inactive: 0.793.

For the molecule B7, the enrichment score was inactive: 0.812.

Take B8: the enrichment score was inactive: 0.84.

Turning to B9, the enrichment score is inactive: 0.78.

Take B10: the enrichment score was inactive: 0.37.

For the molecule B11, the enrichment score was inactive: 1.3.

In the case of B12, the enrichment score is active: 4.05.

As to B13, the enrichment score is inactive: 0.571.

B14: the enrichment score is inactive: 0.653.

Turning to B15, the enrichment score is inactive: 0.597.

For the molecule B16, the enrichment score was inactive: 1.3.

Take B17: the enrichment score was inactive: 1.09.

Consider B18, for which the enrichment score was inactive: 1.61.
